Measurements: PubChem BioAssay AID463173 (ICCB-Longwood Screening Facility, Harvard Medical School, 2010)
Hit rate of the full screen: of about 52,000 compounds, about 4,300 (8.3%) were called active. Cut-off read from the data, not from the text of the source: active = survival mostly below about 52% (no sharp cut-off); inactive = mostly above about 56%. The list shows a part of the results.

Each molecule was assayed on DeltatarO mutant (assay: growth inhibition of S. aureus wild type versus tarO mutant, primary screen, teichoic acid synthesis inhibitors, RN4220, OD600 (AID 463173)). Details: OD600, 18 h, hits give low values, screened at 18.75 µg/mL (by protocol).

Row | SMILES | survival
1 | N=C(N=C(N)N)N1CCCc2ccccc21 | inactive: 98%
2 | O=C(CNCC1CCCO1)NCc1ccco1 (stereo unspecified) | inactive: 97%
3 | NC(=O)CSc1nnc(-c2ccco2)n1Cc1ccco1 | inactive: 74%
4 | Cc1ccc(NC(=O)CSc2nc(=O)n(CCN3CCOCC3)c3c2CCC3)c(C)c1 | inactive: 73%
5 | Cc1ccc(C(=O)Nc2ccc(S(=O)(=O)N3CCC(c4nc5ccccc5s4)CC3)cc2)cc1 | inactive: 61%
6 | Cc1ccc(OCC(=O)Nc2nnc(S(=O)(=O)N3c4ccccc4CC3C)s2)cc1 (stereo unspecified) | active: 34%
7 | Cc1ccc(NC(=O)c2nc(S(C)(=O)=O)ncc2N(Cc2ccco2)Cc2cccs2)c(C)c1 | active: 38%
8 | CC(=O)N1CCc2nc3sc(C(=O)c4ccc(F)cc4)c(N)c3c(C(F)(F)F)c2C1 | inactive: 54%
9 | CCc1ccc(NC(=O)C(=O)NCC(c2cccnc2)N2CCN(c3ccc(F)cc3)CC2)cc1 (stereo unspecified) | inactive: 85%
10 | CC(=O)c1cccc(NC(=O)c2nc(-c3ccccc3)n(-c3cccc(Cl)c3)n2)c1 | inactive: 68%
11 | COc1ccc(-c2nn3c(=O)cc(CN4CCN(C(=O)c5ccc(OC)c(OC)c5)CC4)nc3s2)cc1 | inactive: 98%
12 | CCOc1ccccc1CNc1ccc2cc(S(=O)(=O)N3CCC(C)CC3)ccc2n1 | inactive: 70%
13 | CCc1ccc2[nH]c(=O)c(CN(CCCN3CCOCC3)C(=S)NC)cc2c1 | inactive: 88%
14 | COc1ccc(-c2noc(N(c3nc(-c4ccc(OC)c(OC)c4)no3)c3ccccc3OC)n2)cc1OC | inactive: 115%
15 | CC(C)(C)c1ccc(C(=O)Nc2ccc3c(c2)CCCN3C(=O)c2cccs2)cc1 | inactive: 80%
16 | Cc1ccc(C)c(N2CCN(C(=O)NC3CCCCC3)CC2)c1 | inactive: 91%
17 | CCOc1ccccc1NC(=O)c1ccc2c(Cl)c3c(nc2c1)CCC3 | inactive: 82%
18 | CC(=O)c1cc(-c2ccccc2)n(CCC(=O)NCc2ccc(C)cc2)c1C | inactive: 76%
19 | CC(C(=O)O)c1nn(C)c(=O)c2ccccc12 (stereo unspecified) | inactive: 92%
20 | CCOC(=O)c1c(C)n(C2CCCCC2)c2ccc(OCC(N)=O)cc12 | inactive: 69%
21 | CCOc1ccccc1Nc1sc(C(=O)c2ccccc2)c(N)c1C(=O)Nc1ccccc1 | inactive: 102%
22 | CCOc1ccc(-n2ccnc2SCC(=O)Nc2nc3ccc(C)cc3s2)cc1 | inactive: 67%
23 | Cc1cc(-c2ccc(C)c(S(=O)(=O)NC3CCCCC3)c2)on1 | inactive: 83%

Row | SMILES | survival
24 | Cc1nn(-c2ccccc2)c2c1N(CC(=O)N1CCN(c3ccc(F)cc3)CC1)C(=O)CS2 | inactive: 81%
25 | O=C(Cn1c(=O)n(Cc2cccs2)c(=O)c2cccnc21)Nc1ccc(F)cc1 | inactive: 87%
26 | COc1ccc(-c2ccc(SCC(=O)N3CCC(C)CC3)nn2)cc1 | inactive: 94%
27 | COc1cccc2cc(C(=O)Nc3ccc(F)c(F)c3)c(=O)oc12 | inactive: 77%
28 | COc1ccc(CNC(=O)c2cc3sccc3n2CC(=O)c2ccccc2)cc1 | inactive: 80%
29 | Cc1ccccc1S(=O)(=O)Cc1ccc(C(=O)NC2CCC(C)CC2)o1 (stereo unspecified) | inactive: 80%
30 | CCOc1ccc(NC(=O)Cn2c(=O)n(-c3ccccc3)c(=O)c3ccc(C(=O)NCc4ccc5c(c4)OCO5)cc32)cc1 | inactive: 107%
31 | Cc1ccc(CNC(=O)C2CCN(S(=O)(=O)c3ccc4[nH]c(=O)ccc4c3)CC2)cc1 | inactive: 101%
32 | Cc1nc2nc[nH]n2c(=O)c1CCC(=O)Nc1ccc(F)cc1 | inactive: 99%
33 | CCc1nc2cccnc2n1CCNC(=O)NC1CCCCC1 | inactive: 103%
34 | CC(C)CCN1C(=O)c2ccccc2CC1(C)C(=O)NC1CCC(C)CC1 (stereo unspecified) | inactive: 100%
35 | O=C(CSc1nccn1C1CCCC1)Nc1ccc(C(F)(F)F)cc1 | inactive: 101%
36 | CC(C)c1ccc(-c2nc(C(N)=O)c3c(n2)n(-c2ccc4c(c2)OCO4)c(=O)n3C)cc1 | inactive: 76%
37 | COc1ccc(NC(=O)C2CCN(S(=O)(=O)c3ccc4[nH]c5c(c4c3)CCCCC5)CC2)cc1 | inactive: 113%
38 | CCOc1ccc(NC(=O)Cn2cc(S(=O)(=O)NC)c(S(=O)(=O)NC)c2)cc1 | inactive: 57%
39 | O=C(Nc1cccc(F)c1)[C@H](CSCc1ccccc1)N1Cc2ccccc2C1=O | inactive: 60%
40 | Cc1ccc(Cl)cc1-n1c(=O)c2sc3ccccc3c2n(Cc2ccccc2)c1=O | inactive: 95%
41 | CCCCCSc1nnc(-c2ccc(Br)cc2)o1 | active: -1%
42 | CCOc1cc(-c2nnc(SCC(=O)NC3CCCC3)nc2-c2ccc(OC)c(OCC)c2)ccc1OC | inactive: 93%
43 | CC(=O)Nc1ccc2sc(C)nc2c1 | inactive: 67%
44 | COc1ccccc1Nc1cccc2nonc12 | inactive: 76%
45 | CSc1ncc(C(=O)N2CCN(c3cc(C)ccc3C)CC2)c(C)n1 | inactive: 72%
46 | Cc1cccc(N2CCN(C(=O)CN3C(=O)COc4ccc(S(=O)(=O)N5CCCCCC5)cc43)CC2)c1C | inactive: 73%

Row | SMILES | survival
47 | CN(C)C(=O)N(C)C1CCS(=O)(=O)C1 (stereo unspecified) | inactive: 105%
48 | CCOC(=O)C1=C(C)NC(=O)NC1c1cn(-c2ccccc2)nc1-c1ccc(OCC)cc1 (stereo unspecified) | inactive: 58%
49 | Cc1nc2ccc(S(=O)(=O)N3CCCCC3)cc2s1 | inactive: 95%
50 | Cc1cc(C)c(OCC(=O)N(Cc2ccco2)Cc2ccco2)c(C)c1 | inactive: 66%
51 | CCOC(=O)c1ccc(NS(=O)(=O)c2ccc(-c3cc(C)no3)cc2)cc1 | inactive: 102%
52 | CC(C)(C)n1nnnc1C(c1ccc2ncccc2c1)N1CCOCC1 (stereo unspecified) | inactive: 71%
53 | Cc1ccc(C)c(NC(=O)c2cc(S(=O)(=O)N3CCCc4ccccc43)ccc2F)c1 | inactive: 82%
54 | COc1ccc(Cn2ccc3nc(C)c(C(=O)Nc4cc(C)cc(C)c4)cc3c2=O)cc1 | inactive: 102%
55 | COc1ccccc1CCNC(=O)c1ccc(-c2nc(CSc3ccc(C)cc3)c(C)o2)cc1 | inactive: 70%
56 | Oc1ccc2ccccc2c1CN1CCOCC1 | inactive: 72%
57 | CSc1ncc(C(=O)Nc2c(C)cccc2C)c(-c2ccccc2)n1 | inactive: 99%
58 | Cc1nc2ccccc2c(=O)n1-c1ccc(NC(=O)c2cccc([N+](=O)[O-])c2)cc1 | inactive: 75%
59 | Cc1ccc(S(=O)(=O)C2(C(=O)O)CC2)cc1C | inactive: 99%
60 | Cc1oc(-c2ccc(C(=O)NCc3ccc(Cl)cc3)cc2)nc1CS(=O)(=O)c1ccccc1 | inactive: 87%
61 | CCn1c(=N)c(C(=O)NCc2ccccc2)cc2c(=O)n3cc(C)ccc3nc21 | inactive: 55%
62 | CCCNS(=O)(=O)c1ccc(-n2cnnn2)c(OC)c1 | inactive: 103%
63 | CCCCNC(=O)C(Cc1ccccc1)NS(=O)(=O)c1ccc2c(c1)c(=O)n(C)c(=O)n2C (stereo unspecified) | inactive: 86%
64 | CCC1CN(C(=O)NCc2ccc(C)cc2)c2ccccc2O1 (stereo unspecified) | inactive: 104%
65 | CC(C)c1ccc(N2C(=O)CS(=O)(=O)C23C(=O)N(Cc2cccc(F)c2)c2ccccc23)cc1 (stereo unspecified) | inactive: 69%
66 | CCOc1ccc(-c2ncnn2-c2sc3c(c2C#N)CCCCC3)cc1 | active: 5%
67 | CCOc1ccc(NC(=O)c2cnc3ccccn3c2=O)cc1 | inactive: 113%
68 | Cc1ccc2c(CC(=O)Nc3c(C(=O)c4ccc(C)c(F)c4)oc4ccccc34)coc2c1 | inactive: 96%
69 | COc1cc(C2CC(=O)Nc3c2c(C)nn3-c2nncc(-c3ccc(C)cc3)n2)cc(OC)c1OC (stereo unspecified) | inactive: 92%

Row | SMILES | survival
70 | O=C(CN1CCC(n2nnc3ccccc32)CC1)Nc1ccccc1Cl | inactive: 94%
71 | COc1ccc(S(=O)(=O)c2c(O)c3ccc(C(=O)NCc4ccc(F)cc4)cc3[nH]c2=O)cc1 | inactive: 108%
72 | COc1ccc(NC(=O)CSc2nc(-c3ccc(F)cc3)[nH]c2-c2ccc(C)cc2)cc1OC | inactive: 64%
73 | CC(=O)c1ccc(NC(=O)c2cnn(-c3cccc(F)c3)c2-n2cccc2)cc1 | inactive: 94%
74 | CCCCOc1ccc(C2(C)CC(=O)NC2=O)cc1 (stereo unspecified) | inactive: 92%
75 | Cc1ccc(CNC(=O)c2cc(C)nc3c2c(C)nn3-c2ccc(C)cc2)cc1 | inactive: 55%
76 | CCOC(=O)c1c(NC(=O)c2cc3ccccc3c(=O)o2)sc2c1CCC(C)C2 (stereo unspecified) | inactive: 129%
77 | COc1ccc(-n2c(=O)c3ccccc3n(CC(=O)Nc3ccccc3OC)c2=O)cc1 | inactive: 73%
78 | COc1cc(OC)cc(C(=O)Nc2cc3c(cc2N2CCCC2)n(C)c(=O)c(=O)n3C)c1 | inactive: 126%
79 | CCc1c(C)[nH][n+]2cnn(Cc3ccc(Cl)cc3)c2c1=O | inactive: 89%
80 | Cc1ccc2nc(SCC(=O)N(C)C3CCCCC3)c(C#N)cc2c1 | inactive: 98%
81 | O=C(Nc1ccc(Oc2ccccc2)cc1)C1CCN(S(=O)(=O)c2ccc(Cl)cc2)CC1 | inactive: 52%
82 | CCOC(=O)c1cc(S(=O)(=O)NCc2ccc(C)cc2)[nH]n1 | inactive: 130%
83 | COc1ccccc1NC(=O)CCCc1nnc2n(C)c(=O)c3sccc3n12 | inactive: 96%
84 | CC(C)Nc1nc(C#N)nc(NC(C)C)n1 | inactive: 93%
85 | O=S(=O)(c1ccc(Cl)cc1)c1nc(-c2ccco2)oc1SCc1ccc(F)cc1 | inactive: 57%
86 | COc1ccc(CCN2C(=O)c3[nH]nc(-c4ccccc4O)c3C2c2ccc(OC)cc2)cc1 (stereo unspecified) | active: 29%
87 | CC(C)CCNC(=O)C1CCN(Cc2ccccc2Cl)CC1 | inactive: 84%
88 | CCOC(=O)c1[nH]c(C)c(/C=N/O)c1C | inactive: 93%
89 | COc1ccc(-c2nc(SCC(=O)Nc3ccc4c(c3)OCCO4)c(-c3ccc(C)cc3)[nH]2)cc1OC | inactive: 49%
90 | O=C(Nc1cccnc1)Nc1c[nH]c2c(Cl)cccc2c1=O | inactive: 89%
91 | Cc1ccccc1Nc1c(-c2ccc(N3CCOCC3)cc2)nc2ccccn12 | active: 41%
